Among all 310,000 compounds or so, about 14,000 (4.5%) showed an effect of 50% or more. The effect is printed as a negative number. The list shows a part of the results.
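Note: peak tail current of the secondary pulse compared with the same well before compound.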

The target of the assay is human ether-à-go-go-related gene (hERG) potassium channel (human, UniProt Q12809). Description: primary screen, population patch clamp on CHO cells stably expressing hERG.
Sequence of human ether-à-go-go-related gene (hERG) potassium channel (Q12809 whole entry, looked up): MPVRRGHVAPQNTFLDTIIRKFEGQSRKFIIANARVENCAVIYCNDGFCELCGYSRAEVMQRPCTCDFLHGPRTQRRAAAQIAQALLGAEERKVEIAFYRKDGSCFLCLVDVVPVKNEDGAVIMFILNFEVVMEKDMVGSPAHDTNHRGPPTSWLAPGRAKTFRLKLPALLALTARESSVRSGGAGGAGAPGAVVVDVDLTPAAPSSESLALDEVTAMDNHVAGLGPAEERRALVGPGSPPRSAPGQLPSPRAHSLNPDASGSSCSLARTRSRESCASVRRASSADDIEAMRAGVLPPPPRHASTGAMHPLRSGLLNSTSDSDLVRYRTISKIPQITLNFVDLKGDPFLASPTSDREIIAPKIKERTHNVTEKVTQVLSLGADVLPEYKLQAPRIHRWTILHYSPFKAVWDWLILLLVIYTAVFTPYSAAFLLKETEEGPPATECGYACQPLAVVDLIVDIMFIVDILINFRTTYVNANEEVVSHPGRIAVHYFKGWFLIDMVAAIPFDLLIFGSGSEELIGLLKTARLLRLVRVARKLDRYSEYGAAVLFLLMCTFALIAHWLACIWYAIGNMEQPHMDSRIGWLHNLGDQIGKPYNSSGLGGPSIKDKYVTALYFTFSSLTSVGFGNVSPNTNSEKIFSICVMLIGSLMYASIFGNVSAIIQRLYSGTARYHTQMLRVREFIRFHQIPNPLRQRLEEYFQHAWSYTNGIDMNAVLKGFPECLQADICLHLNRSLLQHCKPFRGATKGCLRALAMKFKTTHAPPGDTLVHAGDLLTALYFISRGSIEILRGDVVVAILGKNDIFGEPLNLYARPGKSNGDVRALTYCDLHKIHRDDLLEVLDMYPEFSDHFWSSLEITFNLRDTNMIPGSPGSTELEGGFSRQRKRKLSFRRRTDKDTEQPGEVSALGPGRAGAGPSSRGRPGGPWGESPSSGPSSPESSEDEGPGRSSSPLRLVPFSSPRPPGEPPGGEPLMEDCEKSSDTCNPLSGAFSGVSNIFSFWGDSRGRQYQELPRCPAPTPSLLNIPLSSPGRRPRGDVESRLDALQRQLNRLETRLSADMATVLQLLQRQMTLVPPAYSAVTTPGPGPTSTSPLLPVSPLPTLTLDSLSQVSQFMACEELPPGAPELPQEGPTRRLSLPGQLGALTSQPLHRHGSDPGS
Regarding `Cc1c(C)c2c(OCC(=O)O)cc3c(c2oc1=O)CCC(C)(C)O3`, the “hERG current change (%, negative = inhibition) at 10uM” value amounted to 19.6%.
Consider `CCOc1cccc(/C(O)=C2/C(=O)C(=O)N(CCOC)C2c2ccncc2)c1` (stereo not drawn), for which the “hERG current change (%, negative = inhibition) at 10uM” value turned out to be 9.53%.
For `COc1cc(OC)cc(C(=O)N[C@H](C(=O)OCC(=O)NC(=O)c2cccn2C)C(C)C)c1` the value was 7.96%; for `Cc1cccc(NC(=O)N2CCCCCC2)c1`, -8.87%; for `O=C(NCc1ccco1)C(c1ccc(F)cc1)N(Cc1cccnc1)C(=O)Cn1nnc2ccccc21` (stereo not drawn), -17.6%.
Take `CC(C)c1ccc2nc(NC(=O)C3CC3)sc2c1`: the “hERG current change (%, negative = inhibition) at 10uM” value was -55%.
`N#C/C(=C/c1cccc(C(F)(F)F)c1)c1nc(CCN2C(=O)c3ccccc3C2=O)cs1`: the “hERG current change (%, negative = inhibition) at 10uM” value is -0.904%.
In the case of `CC(CC(=O)N1CCc2ccccc21)n1cccn1` (stereo not drawn), the “hERG current change (%, negative = inhibition) at 10uM” value was determined as 6.25%.
For `O=C(Cn1cccc1C(=O)c1ccccc1)NCc1ccccc1` the value was 3.9%; for `CC(C)CC(=O)Nc1c2c(nn1-c1ccc(F)cc1)CS(=O)(=O)C2`, 8.51%.
Then `Cc1cc(-c2nnc3sc(C4CCCCC4)nn23)n[nH]1`, with -16.4%; and `COc1ccc(/C(=N\Nc2ccccc2C(=O)O)c2ccccc2)cc1`, with 0.149%.
`O=C(NCCCN1CCOCC1)C1(c2ccccc2)CCCC1`: the “hERG current change (%, negative = inhibition) at 10uM” value was 15.9%.
For `Cc1ccccc1NC(=O)COC(=O)CCc1ccccc1` the value was 15.7%.
Then `Cc1cc(C)c(C(=O)COC(=O)C2CC3CCCC(C2)C3=O)c(C)c1` (stereo not drawn), with -9.23%; and `CCCCc1[nH]c(=O)c(C#N)c2c1CCCC2`, with 1.62%; and `COc1ccccc1N1CCN(C(=O)NCc2cccc(C(F)(F)F)c2)CC1`, with -23.6%.
On to `COCCNC(=O)CCCN1C(=O)c2ccccc2Sc2ncccc21`, for which the “hERG current change (%, negative = inhibition) at 10uM” value is given as 20.9%.
Then `CC(=O)c1ccc(N2CCN(S(=O)(=O)c3ccc4c(c3)NC(=O)CC(=O)N4)CC2)cc1`, with 13.4%; and `CCOC(=O)N1CCN(C(=O)Cn2c(=O)sc3ccccc32)CC1`, with 4.02%; and `S=C(Nc1ccc(Cl)cc1)NC1CCN(Cc2ccccc2)CC1`, with -39.9%.
For `CC(C)CCNC(=O)CN(C(=O)CCC(=O)Nc1nccs1)C1CCCCC1` the value was -5.84%.
For `Cc1ccc(N=c2ssnc2Cl)cc1` the value was 17.5%; for `COc1cc(CN2CCN(c3cccc(C)c3C)CC2)cc(Br)c1O`, -12.6%; for `Cc1ccc(Nc2ccc(C(=O)N3CCCC3)cn2)c(C)c1`, -4.75%.
For `COc1ccc(NS(=O)(=O)c2ccc3oc(SC)nc3c2)cc1`, the “hERG current change (%, negative = inhibition) at 10uM” value is -2.22%.
For `CCCCC(NC(=O)Cc1c(C)c2cc3c4c(oc3c(C)c2oc1=O)CCCC4)C(=O)O` (stereo not drawn) the value was 3.35%; for `CC1c2ccsc2CCN1C(=O)NC(=O)c1ccc(Cl)cc1` (stereo not drawn), 5.59%.
Then `CC12CCC(C(=O)NCCCN3CCOCC3)(OC1=O)C2(C)C` (stereo not drawn), with 13.9%; and `Cl.O=C(O)c1cccc(Nc2nc(-c3cccnc3)nc3ccccc23)c1`, with 4.75%.
Take `O=C(COc1ccccc1)NCC(=O)Nc1ccncc1`: the “hERG current change (%, negative = inhibition) at 10uM” value was determined as 1.26%.
`NC1=NC[C@H](c2ccccc2)N1CC1CCCCC1`: the “hERG current change (%, negative = inhibition) at 10uM” value is on record as -0.543%.
In the case of `CCOC(=O)Cc1csc(NC(=O)c2ccc(Cl)s2)n1`, the “hERG current change (%, negative = inhibition) at 10uM” value was -1.6%.
Then `CN1CCC(N(C)C(=O)CCc2nc3ccccc3c(=O)[nH]2)CC1`, with 8.31%.
For `CCOC(=O)Cc1csc(N/N=C/c2ccccc2)n1` the value was -5.17%; for `COc1cc2c(cc1OC)CN(Cc1ccc(OC)c(C)c1OC)CC2`, -43.6%; for `COc1ccc(OC)c(C2CC(=O)N3CN(c4ccc(C)c(Cl)c4)CSC3=C2C#N)c1` (stereo not drawn), 19.4%.
Take `O=C1OC(N2CCN(c3ccccn3)CC2)c2ccccc21` (stereo not drawn): the “hERG current change (%, negative = inhibition) at 10uM” value worked out at 6.7%.
In the case of `O=C(NNC(=O)C1CC1)c1cccc([N+](=O)[O-])c1`, the “hERG current change (%, negative = inhibition) at 10uM” value is recorded as 1.1%.
In the case of `O/C=c1\ccc2cccc3nc(C(F)(F)F)nc1c23`, the “hERG current change (%, negative = inhibition) at 10uM” value is on record as 10.1%.
Turning to `CCOC(=O)C1CCCN(S(=O)(=O)c2ccc3c4c2CC(=O)N4CC(C)S3)C1` (stereo not drawn), the “hERG current change (%, negative = inhibition) at 10uM” value was -0.356%.
As to `NNC(=O)C(=O)Nc1ccc(O)cc1`, the “hERG current change (%, negative = inhibition) at 10uM” value came out at 10.3%.
On to `FC(F)(F)c1nnc(-c2ccccc2)nc1Sc1ccc(Cl)cc1`, for which the “hERG current change (%, negative = inhibition) at 10uM” value came to 20.1%.
Then `O=C(CSc1nnc(-c2ccccn2)o1)Nc1cccc(Cl)c1`, with 8.36%; and `Cc1ccc(C2=NN(CCC(=O)NCCCN3CCOCC3)C(=O)CC2)cc1`, with -52.3%.

The values are drawn from paper PMC4336329 (PLoS ONE, 2015).
